The values below come from PubChem BioAssay AID743255 (National Center for Advancing Translational Sciences (NCATS), 2014).

The structures appear in SMILES notation. Out of some 390,000 compounds screened, about 910 (0.23%) were called active. Another 5% or so got no clear call; they are omitted. The call rests on the fitted dose curve; in most records, active means well fitted inhibition curve with a large enough effect; inconclusive means small, poorly fitted or top-dose-only effect; inactive means no such curve, though single readings can be large or run the other way. The entries are a selection whose mix differs from that of the whole data set.
On the % scale 0 is the no-effect control and ±100 the full control effect; potency means the concentration at half of the fitted maximal effect.

The experiment addresses Ubiquitin carboxyl-terminal hydrolase 1 (Homo sapiens) (UniProt O94782). Kind of experiment: Inhibitors of USP1/UAF1: Primary Screen. Further: nearly all actives have a fitted effect of over 60% in size. The note with it: recombinant USP1/UAF1, Ub-Rhodamine cleavage fluorescence; activity change, negative = inhibition: at 57.1 µM (top of the series). In short, it runs like this: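 USP1/UAF1 complex at 1 nM was preincubated with compound for 15 min at room temperature, then Ub-Rho substrate (150nM final) was added. Fluorescence (480/540 nm) was read kinetically, 6 reads every 60 seconds.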
UniProt O94782, sequence (O94782 whole entry, looked up): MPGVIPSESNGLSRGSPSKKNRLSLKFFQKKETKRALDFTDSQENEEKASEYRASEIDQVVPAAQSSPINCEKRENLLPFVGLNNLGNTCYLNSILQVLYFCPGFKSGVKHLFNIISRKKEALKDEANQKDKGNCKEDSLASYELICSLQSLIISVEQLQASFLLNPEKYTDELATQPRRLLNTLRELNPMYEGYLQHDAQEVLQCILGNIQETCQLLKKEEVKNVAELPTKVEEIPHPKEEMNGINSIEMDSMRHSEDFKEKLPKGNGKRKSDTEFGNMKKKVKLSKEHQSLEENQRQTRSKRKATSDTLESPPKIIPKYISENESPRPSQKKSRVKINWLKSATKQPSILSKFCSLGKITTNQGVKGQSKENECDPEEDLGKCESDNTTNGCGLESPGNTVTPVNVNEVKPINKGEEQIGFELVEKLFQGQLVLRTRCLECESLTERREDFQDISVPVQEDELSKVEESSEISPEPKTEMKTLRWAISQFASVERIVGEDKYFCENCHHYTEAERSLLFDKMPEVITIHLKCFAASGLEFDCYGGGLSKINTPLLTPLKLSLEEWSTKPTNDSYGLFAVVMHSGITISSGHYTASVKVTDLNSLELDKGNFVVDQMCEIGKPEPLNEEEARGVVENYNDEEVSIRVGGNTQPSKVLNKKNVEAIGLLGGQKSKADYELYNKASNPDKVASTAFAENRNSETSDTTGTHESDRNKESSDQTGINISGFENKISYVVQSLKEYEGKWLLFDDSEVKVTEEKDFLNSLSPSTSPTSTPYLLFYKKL
`Cc1cc(C)c(-c2n[nH]c3c2C(c2ccccc2F)N(Cc2ccco2)C3=O)c(O)c1` (stereo not given): the “activity change, negative = inhibition” value is inactive: 21%.
Turning to `Cc1ccc(S(=O)(=O)N2CCOC23CCN(C(=O)C(=O)NCCC(C)C)CC3)cc1`, the “activity change, negative = inhibition” value is inactive: 29.2%.
As to `NC(=NCCCCCCN=C(N)/N=C(\N)Nc1ccc(Cl)cc1)/N=C(\N)Nc1ccc(Cl)cc1`, the Potency entry was “inactive”.
As for `C=CCC[C@H](Cc1ccc(F)cc1)C(=O)OC[C@H](Cc1c[nH]c2ccccc12)NC(=O)[C@@H](CC=C)CC(=O)N(CCO)Cc1ccccc1`, the “activity change, negative = inhibition” value was inactive: -15.9%.
In the case of `CCOc1ccccc1NC(=O)CCS(=O)(=O)c1cccc2nsnc12`, the “activity change, negative = inhibition” value is inactive: -19.6%.
On to `COc1ccc2cc(C(=O)N/N=C/c3sc4ccccc4c3O)ccc2c1`, for which the Potency was active: 28.2 µM.
Regarding `CCc1ccccc1NC(=O)/C(C#N)=C/c1ccc(Sc2ccccc2)o1`, the “activity change, negative = inhibition” value was inactive: -9.64%.
The same measure, in the same setting: for `Cn1c(=O)oc2cc(S(=O)(=O)N3CCC(C(=O)NCc4ccccc4Cl)CC3)ccc21` the value was inactive: -1.96%.
Same read-out and setting: for `NC(=O)CSc1oc(-c2ccco2)nc1S(=O)(=O)c1ccc(Br)cc1` the value was inactive: -17.7%.
Same read-out and setting: as for `COc1cc(NC(=O)CN(c2cc(C)cc(C)c2)S(=O)(=O)c2c(C)[nH]c(=O)[nH]c2=O)cc(OC)c1`, the figure is inactive: -18.1%; as for `C[C@H]1CN([C@@H](C)CO)C(=O)CCCn2nncc2CO[C@H]1CN(C)C(=O)c1ccccc1`, inactive: 0.0802%; as for `COc1cccc(CNc2ccc3c(c2)ncn3C)c1OC`, inactive: -25%.
In the case of `Cc1cc(C)cc(NC(=O)Cn2nnc(C(=O)NCc3ccco3)c2N)c1`, the “activity change, negative = inhibition” value was inactive: -17.4%.
Turning to `COCC(=O)N(C)C[C@@H]1Oc2cc(Br)ccc2S(=O)(=O)N([C@H](C)CO)C[C@H]1C`, the “activity change, negative = inhibition” value was inactive: -15.9%.
The same measure, in the same setting: for `COc1ccc(-c2cc(C)no2)cc1S(=O)(=O)N1CCN(c2cccc(C)c2)C(C)C1` (stereo not given) the value was inactive: -24.6%; for `C/C(N)=C(/C#N)C(=O)CSc1nnc(Nc2cccc(C)c2)s1`, inactive: -5.7%; for `O=C1/C(=C\c2cccs2)SC(=S)N1C1CCS(=O)(=O)C1` (stereo not given), inactive: -19.2%.
Regarding `CC(C)NC(=O)N(C)C[C@@H]1Oc2cc(Br)ccc2S(=O)(=O)N([C@@H](C)CO)C[C@H]1C`, the “activity change, negative = inhibition” value was inactive: -24.3%.
On to `CCCCCCN1C[C@@H](n2cc(COC(=O)c3ccccc3)nn2)[C@H](O)C[C@@H]1c1ccc(Cl)cc1`, for which the “activity change, negative = inhibition” value is inactive: -6.52%.
In the case of `O=C(C[C@@H]1C/C=C\C[C@H](NC(=O)OCC2c3ccccc3-c3ccccc32)C(=O)OC[C@H]2CCCN2C1=O)NCCO`, the “activity change, negative = inhibition” value is inactive: -6.9%.
Take `C[C@@H]1NS(=O)(=O)c2cc(Cl)ccc2O[C@@H]1c1ccccc1`: the “activity change, negative = inhibition” value was inactive: -8.84%.
For the compound `O=C(NC1CC1)C1=C[C@@H](c2coc3ccccc3c2=O)C[C@@H](OCc2ccc(CO)cc2)O1`, the “activity change, negative = inhibition” value is inactive: -22.3%.
The same measure, in the same setting: as for `Cc1ccccc1CN(C)C[C@@H]1OCc2cnnn2CCCC(=O)N([C@@H](C)CO)C[C@H]1C`, the figure is inactive: -20.2%; as for `COc1ccc(N(CC(=O)NCc2ccc(F)cc2)S(=O)(=O)c2c(C)noc2C)cc1`, inactive: -27.5%.
In the case of `CCc1nonc1NC(=O)c1oc2ccc(F)cc2c1C`, the “activity change, negative = inhibition” value is inactive: -11.9%.
